From PubChem BioAssay AID1645887 (National Center for Advancing Translational Sciences (NCATS), 2021) come the findings set out here.

“And” between values parts separate entries of the source, which are not always exact repeats. Equal values may be shown once. Out of some 16,000 compounds screened, about 40 (0.2%) were called active. About 1% were inconclusive and are not listed. The call rests on the fitted dose curve; in most records, active means well fitted activation curve with a large enough effect; inconclusive means small, poorly fitted or top-dose-only effect, or another doubt; inactive means no such curve, though single readings can be large or run the other way. The list shows a part of the results.
On the % scale 0 is the no-effect control and ±100 the full control effect.

The target of the assay is Rap guanine nucleotide exchange factor 4 (Homo sapiens) (UniProt Q8WZA2). The experiment in a line: Validation qHTS for agonist of cAMP-regulated guanine nucleotide exchange factor 4 (EPAC2).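 Further: exchange makes BODIPY-GDP fluorescence drop when released from Rap1B; series mostly up to about 150 µM.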 Conditions: EPAC2 Rap1B BODIPY-GDP exchange, fluorescence; activation: hits give high values. A digest of the protocol: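 Fluorescent exchange assay: 100 nM EPAC2 with 250 nM RAP1B-BODIPY-GDP and 50 uM GDP; compound added, 5 min at room temperature, then read (ex 480/em 540 nm) every 5 min for 30 min. Normalized to 6.5 mM cAMP agonist control.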
Chain of UniProt Q8WZA2 (Q8WZA2 whole entry, looked up): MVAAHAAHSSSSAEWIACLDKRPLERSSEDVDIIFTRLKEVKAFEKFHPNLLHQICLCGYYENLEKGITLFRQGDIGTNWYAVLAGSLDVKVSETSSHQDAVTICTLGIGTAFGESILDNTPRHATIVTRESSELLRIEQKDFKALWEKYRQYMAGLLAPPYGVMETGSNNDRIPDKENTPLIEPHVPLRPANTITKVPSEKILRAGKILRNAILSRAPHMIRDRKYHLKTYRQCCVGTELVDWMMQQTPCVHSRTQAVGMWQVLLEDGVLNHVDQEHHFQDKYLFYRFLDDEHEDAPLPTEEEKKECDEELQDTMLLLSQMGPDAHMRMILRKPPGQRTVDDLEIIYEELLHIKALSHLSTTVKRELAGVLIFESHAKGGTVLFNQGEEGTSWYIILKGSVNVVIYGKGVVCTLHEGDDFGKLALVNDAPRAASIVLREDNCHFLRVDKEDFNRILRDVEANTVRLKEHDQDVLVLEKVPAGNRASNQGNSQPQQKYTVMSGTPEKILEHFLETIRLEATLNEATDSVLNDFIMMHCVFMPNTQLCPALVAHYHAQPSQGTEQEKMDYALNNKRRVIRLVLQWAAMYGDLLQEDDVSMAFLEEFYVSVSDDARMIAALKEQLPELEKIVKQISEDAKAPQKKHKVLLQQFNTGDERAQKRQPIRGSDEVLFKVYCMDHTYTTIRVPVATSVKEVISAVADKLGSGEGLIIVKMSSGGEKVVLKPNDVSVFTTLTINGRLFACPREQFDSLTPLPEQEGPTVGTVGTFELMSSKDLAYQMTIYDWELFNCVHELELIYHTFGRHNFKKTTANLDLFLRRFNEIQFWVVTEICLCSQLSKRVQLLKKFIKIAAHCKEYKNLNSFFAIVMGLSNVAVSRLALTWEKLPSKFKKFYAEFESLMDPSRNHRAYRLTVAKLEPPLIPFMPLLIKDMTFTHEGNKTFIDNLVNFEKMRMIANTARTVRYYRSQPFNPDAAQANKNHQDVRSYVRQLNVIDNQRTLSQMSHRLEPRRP
Regarding `CC(=O)Nc1cccc(O)c1`, the activation was inactive: -8.84%.

`Cc1cnc(C(=O)O)c[n+]1[O-]`: the activation was inactive: -12% and inactive: -16.7%.

Take `O=C(Nc1ccccc1)[C@@H]1CC=C[C@@H]2CCN(Cc3ccccc3)C(=O)[C@@H]21`: the activation was inactive: -35.5%.

With `COc1ccc2c(c1)C[C@]1(C)c3ccccc3C(=O)N(Cc3ccccc3)[C@H]21`, the activation was inactive: -9.94%.

On to `C[C@@]12CCC[C@H]1C1CC[C@H]3C[C@H](O)CC[C@]3(C)C1CC2` (some centres undefined), for which the activation is inactive: -5.95%.

Regarding `O=c1c(O)c(-c2ccc(O)c(O)c2)oc2cc(O)cc(O)c12`, the activation was inactive: -11.4% [middle of 7 runs].

As for `CCOC(=O)C1=C(O)C(=O)N(Cc2ccccc2)C1`, the activation is inactive: -15.9%.

In the case of `O=C1CCC[C@@H]2Cc3nc4ccc(O)cc4cc3[C@@H]3CCN1[C@H]23`, the activation is inactive: -26.2%.

In the case of `CN=C(N)NC(=O)Nc1c(C)cccc1C`, the activation was inactive: -9.47%.

Consider `CC(=O)c1ccc(-c2cc(F)cc3c2OC(CNC(=O)Cc2cn4ccsc4n2)C3)s1` (centres undefined), for which the activation was inactive: -3.23%.

Take `COc1ccc(Oc2ncc3nc(-c4ccc(Cl)cc4)c(=O)n(CCC#N)c3n2)cc1`: the activation is inactive: -5.24%.

Regarding `CC1=CC(=O)[C@@H]2C[C@H]1C2(C)C`, the activation is inactive: -3.15%.

Consider `O=C(c1cccc(F)c1)N1CCC2(CCCN(c3cccc(-c4ccccc4)c3)C2)CC1`, for which the activation was inactive: 3.3%.

In the case of `CCNc1ncc2nc(-c3cccs3)c(=O)n(-c3ccccc3)c2n1`, the activation was inactive: 4.31%.

As for `COc1ccc2c(=O)c(-c3ccccc3)coc2c1`, the activation is inactive: -1.34%.

For the compound `CC(=O)NCCNc1ncnc2ccc(-c3ccccc3Cl)cc12`, the activation was inactive: -8.52%.

On to `O=C(NCCc1ccccn1)c1cnn(-c2ncc3c(n2)-c2ccccc2CC3)c1C1CC1`, for which the activation is inactive: 4.5%.

`COC(=O)[C@@H]1[C@H]2C[C@H]3c4[nH]c5ccccc5c4CCN3C[C@H]2CC[C@@H]1O`: the activation is inactive: -15%.

For `COC(=O)CC1C(C)(C)C(OC(C)=O)[C@@]2(O)C=C3C4CC(=O)OC(c5ccoc5)[C@]4(C)CCC3[C@@]1(C)C2=O` (some centres undefined), the activation was inactive: -14%.

In the case of `O=C1[C@H]2[C@H](C=CC[C@H]2C(=O)N2CCOCC2)CCN1Cc1ccccc1`, the activation was inactive: -23.9%.

On to `CN(C)c1ccc(-c2ccc3ncnc(NCc4ccccc4)c3c2)cc1`, for which the activation is inactive: -21.7%.

With `C[C@@H]1CCC2C(C)(C)C3CC21CC[C@@]3(C)O` (some centres undefined), the activation is inactive: -4.48%.

Regarding `O=C(C[C@H]1C(=O)N(C2CCCCC2)C[C@@H]1Cc1ccccc1)Nc1ccccc1`, the activation is inactive: -12.8%.

In the case of `CSc1ncccc1C(=O)NCC1Cc2cc(F)cc(-c3cncnc3)c2O1` (centres undefined), the activation is inactive: -15.6%.
